Data: PubChem BioAssay AID2676 (National Center for Advancing Translational Sciences (NCATS), 2010)
Out of some 370,000 compounds screened, about 1,100 (0.3%) were called active. The inconclusive results got no clear call from the source; some entries with a clear call stand among them for comparison. Calls follow the shape of the dose curve; as a rule, active = well fitted activation curve with a large enough effect; inconclusive = small, poorly fitted or top-dose-only effect; inactive = flat fitted curve, though single readings scatter. Potencies of inconclusive entries are doubtful fits and often do not repeat.

Biological target: Relaxin receptor 1 (Homo sapiens) (UniProt Q9HBX9)
UniProt Q9HBX9, sequence (Q9HBX9 whole entry, looked up): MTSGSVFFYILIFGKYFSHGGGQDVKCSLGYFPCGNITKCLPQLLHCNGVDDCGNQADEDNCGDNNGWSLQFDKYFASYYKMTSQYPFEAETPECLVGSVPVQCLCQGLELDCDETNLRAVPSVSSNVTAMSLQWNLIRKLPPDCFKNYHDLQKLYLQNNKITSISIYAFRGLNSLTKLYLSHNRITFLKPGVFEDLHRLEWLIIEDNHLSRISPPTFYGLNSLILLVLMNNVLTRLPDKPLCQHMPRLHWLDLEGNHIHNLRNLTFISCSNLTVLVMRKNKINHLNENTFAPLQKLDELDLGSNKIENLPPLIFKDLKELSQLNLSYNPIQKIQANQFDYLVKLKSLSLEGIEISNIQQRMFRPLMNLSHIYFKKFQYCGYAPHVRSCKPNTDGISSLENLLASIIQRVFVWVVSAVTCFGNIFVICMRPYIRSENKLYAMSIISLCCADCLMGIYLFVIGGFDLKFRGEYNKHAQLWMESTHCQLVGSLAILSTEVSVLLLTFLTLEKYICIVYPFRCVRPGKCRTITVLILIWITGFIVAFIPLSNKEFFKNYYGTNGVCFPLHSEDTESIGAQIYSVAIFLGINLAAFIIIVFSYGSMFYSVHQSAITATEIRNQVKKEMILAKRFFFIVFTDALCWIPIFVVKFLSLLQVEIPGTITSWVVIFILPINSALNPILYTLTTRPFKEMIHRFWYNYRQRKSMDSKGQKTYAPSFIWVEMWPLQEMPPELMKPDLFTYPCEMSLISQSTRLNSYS
Test: qHTS Assay for Agonists of the Relaxin Receptor RXFP1; also: nearly all actives have a fitted effect of over 60% in size
Details: HEK293T-RXFP1 cAMP TR-FRET, 30 min; series mostly up to 57.5 µM; activation: at the top concentration
Summary of the method: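 HEK293T cells stably expressing RXFP1 were pretreated with the PDE4 inhibitor Ro 20174, exposed to compounds for 30 min at 37C, lysed, and cAMP was read by TR-FRET. Data normalized to buffer (basal) and 29 nM porcine relaxin (100%).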
% is scaled to controls: 0 for no effect and ±100 for the full control effect; potency is read from the fitted curve at half-maximal effect; tags tell the direction and shape of the fitted curve.

Structure (SMILES) | activation | Potency
CC(C)N1CCc2c(sc(NC(=O)c3cc4cc([N+](=O)[O-])ccc4s3)c2C(N)=O)C1 | inactive: 5.34% | –
COc1cc(NC(=O)CCc2nnc3ccc(N4CCN(c5cccc(OC)c5)CC4)nn23)cc(OC)c1 | – | active: 15.8 µM
COc1cc(-c2oc3ccc(C)cc3c(=O)c2O)cc(OC)c1OC | – | inconclusive: 20 µM [activator, partial curve]
CCC(C)NC(=O)CSc1nc(-c2ccc(F)cc2)cc(C(F)(F)F)n1 (stereo unspecified) | – | inconclusive: 31.6 µM [activator, single point]
CCOC(=O)CSc1nc2c(sc3cccc(F)c32)c(=O)n1Cc1ccc(OC)cc1 | – | inconclusive: 35.5 µM [activator, single point]
CCOC(=O)c1sc2nc(C)c3c(c2c1N)CC(C)(C)OC3 | inactive: 4.87% | –
Cc1sc(NC(=S)Nc2ccc(F)cc2)c(C(N)=O)c1C | – | inconclusive: 28.2 µM [activator, single point]
O=C(CCS(=O)(=O)c1ccccc1)Nc1ccc(-c2nc3ccccc3s2)c(O)c1 | – | inconclusive: 14.1 µM [activator, partial curve]
O=C(CCCN1C(=O)c2cccnc2C1=O)Nc1ccccc1F | – | inconclusive: 28.2 µM [activator, partial curve]
Cc1ccc(-c2onc(C)c2C)cc1S(=O)(=O)Nc1cccc(Cl)c1C | inactive: -0.217% | –
CCN(CC)CCCN1C(=O)C(O)=C(C(=O)c2cc3cccc(OC)c3o2)C1c1ccncc1 (stereo unspecified) | – | inconclusive: 20 µM [activator, partial curve]
CN(C)c1ccc(C(C(=O)NCC2CCCO2)N(C(=O)c2snc(C(N)=O)c2N)c2ccccc2)cc1 (stereo unspecified) | – | inconclusive: 39.8 µM [activator, single point]
CCOC(=O)c1ccc(NC(=O)C23CCC(C)(C(=O)O2)C3(C)C)cc1 (stereo unspecified) | inactive: -1.18% | –
O=S(=O)(Nc1cc2nc3ccccc3nc2n1Cc1ccccc1)c1ccc(Cl)cc1 | inactive: 7.01% | –
O=C(O)CCCCCn1c(SCc2cc(=O)n3cc(Cl)ccc3n2)nc2ccsc2c1=O | – | inconclusive: 28.2 µM [activator, partial curve]
Cc1ccnc(N2CCC(C(=O)NCc3ccc4c(c3)OCO4)CC2)n1 | – | inconclusive: 39.8 µM [activator, single point]
COC(=O)c1c(-c2cccs2)csc1NC(=O)COc1c(C)ccc(C)c1C | inactive: 0.0644% | –
Cc1[nH]c(=O)c(C#N)c2c1COC(C)(C)C2 | inactive: 1.01% | –
Cc1ccc(NC(=O)CSc2ncc3c(n2)-c2ccc(Cl)cc2N(C)S3(=O)=O)cc1F | – | inconclusive: 31.6 µM [activator, single point]
COc1ccc(CN2CCc3nc(SCC(=O)Nc4cc(C)cc(C)c4)[nH]c(=O)c3C2)cc1 | – | inconclusive: 39.8 µM [activator, single point]
CCc1cc2cccc(C)c2nc1SCC(=O)Nc1cc(C)on1 | – | inconclusive: 20 µM [activator, partial curve]
O=C(CSc1cnc2ccccc2n1)NC1CCCC1 | – | inconclusive: 17.8 µM [activator, partial curve]

Structure (SMILES) | activation | Potency
CN(C)S(=O)(=O)c1cccc(NC(=O)CSc2nncn2C)c1 | – | inconclusive: 15.8 µM [activator, partial curve]
CN(Cc1ccco1)C(=O)Cn1cc(S(=O)(=O)N2CCCC2)c(S(=O)(=O)N2CCCC2)c1 | – | inconclusive: 22.4 µM [activator, partial curve]
COc1ccc(Cl)cc1NC(=O)c1cnc2sccn2c1=O | – | inconclusive: 35.5 µM [activator, single point]
CCc1ccccc1NC(=O)CCCN1C(=O)c2cccnc2C1=O | – | inconclusive: 28.2 µM [activator, partial curve]
COc1ccc(C2=NN(c3ccc(C(=O)O)cc3)C(c3ccc(OC)c(OC)c3)C2)cc1 (stereo unspecified) | – | inconclusive: 28.2 µM [activator, partial curve]
CC(C)N1C(=O)S/C(=C/c2ccc(Sc3nc4ccccc4[nH]3)o2)C1=O | inactive: 0.961% | –
C=CCSc1nc2c(c(=O)[nH]1)C(C(C)C)C(C#N)=C(N)O2 (stereo unspecified) | – | inconclusive: 22.4 µM [activator, partial curve]
CC(=O)c1ccc(Nc2nc(=O)c3cccnc3s2)cc1 | – | inconclusive: 15.8 µM [activator, partial curve]
Cc1ccc(OCC(=O)Nc2ccc(S(=O)(=O)Nc3ccccn3)cc2)cc1C | – | inconclusive: 39.8 µM [activator, single point]
COc1ccccc1NC(=O)Cn1c(=O)n(CCCCCC(=O)NCc2ccccc2)c(=O)c2sccc21 | – | inconclusive: 28.2 µM [activator, single point]
Cc1cc(C(=O)Nc2c(C)nc3ccccn3c2=O)ccc1[N+](=O)[O-] | – | inconclusive: 28.2 µM [activator, partial curve]
COC(=O)CN1C(=O)COc2ccc(S(=O)(=O)N3CCCC3)cc21 | inactive: -0.915% | –
CC(=O)c1ccc(-c2nnc(CCC(=O)N(C)Cc3cccc4cnccc34)o2)s1 | – | inconclusive: 28.2 µM [activator, partial curve]
Cc1ccc(NC(=O)CSc2nc(-c3ccccc3Cl)nc3cc(=O)[nH]n23)c(C)c1 | – | inconclusive: 39.8 µM [activator, single point]
COc1ccc(NC(=O)c2ccco2)cc1NC(=O)COc1ccc(Cl)cc1C | – | inconclusive: 25.1 µM [activator, partial curve]
CCN(C(=O)COC(=O)CCc1ccccc1)c1ccccc1 | inactive: 2.71% | –
COc1ccccc1-c1noc(-c2ccc(NC(C)C)c([N+](=O)[O-])c2)n1 | – | inconclusive: 20 µM [activator, partial curve]
Cc1ccccc1NC(=O)c1cnc2sc(N3CCCC3)nn2c1=O | – | inconclusive: 39.8 µM [activator, single point]
Cc1ccc(CNS(=O)(=O)c2ccc3c(c2)NC(=O)CS3)cc1 | inactive: 2.68% | –
O=C(Nc1ccc([N+](=O)[O-])cc1)c1cc(-c2ccccn2)nc2c(Cl)cccc12 | – | inconclusive: 25.1 µM [activator, single point]
COC(=O)c1c(NC(=O)Cn2nc(C(F)F)cc2C(F)F)sc(C)c1C | inactive: -2.59% | –
Cc1ccc2c(=O)c(C(=O)c3ccc(F)cc3)cn(CC(=O)NCCc3ccccc3)c2n1 | – | inconclusive: 39.8 µM [activator, single point]

Structure (SMILES) | activation | Potency
COc1ccc(S(=O)(=O)Nc2cc3c(cc2NCc2ccccc2)n(C)c(=O)n3C)cc1 | – | active: 28.2 µM
Cc1csc2nc(COC(=O)CNC(=O)c3ccccc3Cl)cc(=O)n12 | – | inconclusive: 22.4 µM [activator, partial curve]
CNC(=O)c1ccc(NC(=O)C2CCN(c3ncnc4sc(C)c(C)c34)CC2)cc1 | – | inconclusive: 28.2 µM [activator, partial curve]
COCCn1c(-c2ccc(F)cc2)nc2oc3cc(OC)ccc3c(=O)c2c1=O | inactive: -0.197% | –
COc1ccc(-c2cn3nc(SCC(=O)Nc4ccc(C)c(Cl)c4)ccc3n2)cc1 | – | inconclusive: 39.8 µM [activator, single point]
CCOC(=O)Cn1c(=O)oc2cc(S(=O)(=O)N3CCN(c4ccc(C(C)=O)cc4)CC3)ccc21 | – | inconclusive: 31.6 µM [activator, single point]
Fc1cccc(-n2ncc3c2ncn2nc(-c4ccccc4Cl)nc32)c1 | – | inconclusive: 31.6 µM [activator, partial curve]
O=[N+]([O-])c1cc(Cl)ccc1Sc1cccc2cccnc12 | inactive: -0.0488% | –
O=C(C1CCN(CCCc2ccccc2)CC1)N(CCc1ccccc1)Cc1ccccc1 | inactive: 3.09% | –
CCC(C)NC(=O)CSc1nc2n[nH]c(C)c2c(=N)n1-c1ccc(C)c(Cl)c1 (stereo unspecified) | – | inconclusive: 39.8 µM [activator, single point]
Cc1noc(NS(=O)(=O)c2ccc(N/C=C/C(=O)c3ccncc3)cc2)c1C | – | inconclusive: 22.4 µM [activator, partial curve]
CCc1ccc2nc(SCC(=O)NCC3CCCO3)c(C#N)cc2c1 (stereo unspecified) | – | inconclusive: 35.5 µM [activator, single point]
O=C(Cn1cnc2c(nnn2-c2ccc(F)cc2)c1=O)NCC1CCCO1 (stereo unspecified) | – | inconclusive: 15.8 µM [activator, partial curve]
COc1cc2oc(=O)c(Br)c(C)c2c(OC)c1OC | – | inconclusive: 25.1 µM [activator, partial curve]
Cc1ccc(C(=O)NCC(=O)OCC(=O)c2ccc(Br)s2)cc1 | – | inconclusive: 25.1 µM [activator, partial curve]
Cc1ccc(-n2c([S-])c(C(=O)Nc3ccc(OC(F)F)cc3)[n+]3ccc(C(=O)NCCO)cc23)cc1C | – | inconclusive: 35.5 µM [activator, single point]
CCN(CC)c1ccc(NC(=O)Cn2nc(C)n3cccc3c2=O)c(C)c1 | – | inconclusive: 39.8 µM [activator, single point]
Cc1cc(NC(=O)CSc2nc3c(C)c(C)ccc3cc2C)no1 | – | inconclusive: 39.8 µM [activator, single point]
COc1ccc2ncc3c(-c4ccc(C)c(C)c4)nn(CC(=O)NC4CCCC4)c3c2c1 | – | inconclusive: 35.5 µM [activator, single point]
Cc1ccc(S(=O)(=O)Nc2cccc(C(=O)NCCN3CCOCC3)c2)cc1F | inactive: 0.266% | –
COc1cc2c(cc1OC)CN(C(=O)CN1CCN(S(=O)(=O)c3ccccc3Br)CC1)CC2 | inactive: 1.92% | –
CC(C)NC(=S)NC(=O)c1ccc(-c2ccccc2)cc1 | – | inconclusive: 17.8 µM [activator, partial curve]
